The results in this text go back to PMC12005928.

Sequences of proteins named here, by UniProt entry; tags and fusion partners are left off.
UniProt Q96AE4: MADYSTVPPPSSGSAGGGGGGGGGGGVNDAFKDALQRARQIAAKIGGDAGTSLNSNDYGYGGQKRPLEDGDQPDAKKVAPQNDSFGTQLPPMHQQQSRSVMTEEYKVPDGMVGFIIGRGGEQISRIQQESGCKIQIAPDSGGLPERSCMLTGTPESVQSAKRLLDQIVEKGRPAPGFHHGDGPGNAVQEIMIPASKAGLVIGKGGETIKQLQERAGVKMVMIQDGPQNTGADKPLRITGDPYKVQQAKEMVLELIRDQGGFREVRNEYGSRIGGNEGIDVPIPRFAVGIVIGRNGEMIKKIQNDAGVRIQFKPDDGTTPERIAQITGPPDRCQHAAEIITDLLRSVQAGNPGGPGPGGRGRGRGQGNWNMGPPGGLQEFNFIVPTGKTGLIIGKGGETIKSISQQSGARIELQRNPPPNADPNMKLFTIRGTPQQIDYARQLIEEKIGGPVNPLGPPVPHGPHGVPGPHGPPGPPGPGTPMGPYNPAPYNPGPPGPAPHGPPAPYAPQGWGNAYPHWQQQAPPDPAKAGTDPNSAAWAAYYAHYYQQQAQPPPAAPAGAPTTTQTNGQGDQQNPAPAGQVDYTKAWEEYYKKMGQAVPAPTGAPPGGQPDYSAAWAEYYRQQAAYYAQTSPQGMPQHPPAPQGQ
UniProt Q96I24: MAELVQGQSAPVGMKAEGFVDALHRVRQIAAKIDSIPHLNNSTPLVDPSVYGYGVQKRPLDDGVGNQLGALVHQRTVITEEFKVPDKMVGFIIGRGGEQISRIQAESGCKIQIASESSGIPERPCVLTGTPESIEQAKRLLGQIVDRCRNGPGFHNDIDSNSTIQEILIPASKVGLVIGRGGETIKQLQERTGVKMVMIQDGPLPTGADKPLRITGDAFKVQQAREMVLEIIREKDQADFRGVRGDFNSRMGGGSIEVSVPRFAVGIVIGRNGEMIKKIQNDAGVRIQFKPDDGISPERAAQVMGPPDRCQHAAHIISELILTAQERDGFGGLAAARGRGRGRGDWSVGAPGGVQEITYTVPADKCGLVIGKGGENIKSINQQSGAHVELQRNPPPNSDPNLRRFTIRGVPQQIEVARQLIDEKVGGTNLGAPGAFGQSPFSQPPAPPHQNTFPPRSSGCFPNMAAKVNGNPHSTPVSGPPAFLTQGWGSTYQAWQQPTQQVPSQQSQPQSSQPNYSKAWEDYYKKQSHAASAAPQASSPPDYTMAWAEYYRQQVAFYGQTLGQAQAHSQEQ

These are yes or no findings as the source states them, for the method shown. For some assays here: Binding seen in cells or lysates may run through a third protein. Some entries that bind do so weakly or less than the wild type. For some assays here: Where a sequence is shown, tags or fusion partners need not be part of it.

In assay [1] the target is Tat-FLAG (pFI-Tat(86)-FLAG-WT) (HIV-1) (UniProt P04608). Briefly: co-IP; IP with anti-FLAG antibody from lysates of HEK293T cells 48 h after transfection with Tat-FLAG and HA-tagged FUBPs; 1 mg lysate, 4 ug antibody overnight at 4 C, Dynabeads Protein G; IP buffer 50 mM Tris-HCl pH 7.5, 1 mM EDTA, 150 mM NaCl, 1% Triton X-100; western blot; in Figure 5G pretreated or not with RNase before IP. For orientation: Immunoblotting shows a protein as a band on a membrane.

Assay [2] addresses TatΔ1-21 aa (Tat-FLAG deletion variant) (HIV-1) (UniProt P04608). The assay is described as above.
The target of assay [3] is His-Tat (recombinant His-tagged Tat) (HIV-1) (UniProt P04608). Briefly: co-IP; recombinant protein interaction assay: 1 ug His-Tat and 10 ug GST-FUBP3 mixed in TBS buffer at 4 C, IP with anti-His antibody and Dynabeads Protein G, western blot; both purified.

In the case of FUBP1-HA (from UniProt Q96AE4 1-644), in assay [1], the binding result is listed as “no binding”.
With “FUBP3-HA (FUBP3-HA-WT, far-upstream element-binding protein 3) (from UniProt Q96I24 1-572)”, the binding result in assay [1] and in assay [2] was “binds” in each case.
With “GST-FUBP3 (recombinant N-terminal GST-FUBP3 fusion protein) (from UniProt Q96I24 1-572)”, the binding entry in assay [3] is reported as “binds”.

B1: FUBP2-HA (protein, UniProt Q92945 1-711)
chain: MSDYSTGGPPPGPPPPAGGGGGAGGAGGGPPPGPPGAGDRGGGGPGGGGPGGGSAGGPSQPPGGGGPGIRKDAFADAVQRARQIAAKIGGDAATTVNNSTPDFGFGGQKRQLEDGDQPESKKLASQGDSISSQLGPIHPPPRTSMTEEYRVPDGMVGLIIGRGGEQINKIQQDSGCKVQISPDSGGLPERSVSLTGAPESVQKAKMMLDDIVSRGRGGPPGQFHDNANGGQNGTVQEIMIPAGKAGLVIGKGGETIKQLQERAGVKMILIQDGSQNTNVDKPLRIIGDPYKVQQACEMVMDILRERDQGGFGDRNEYGSRIGGGIDVPVPRHSVGVVIGRSGEMIKKIQNDAGVRIQFKQDDGTGPEKIAHIMGPPDRCEHAARIINDLLQSLRSGPPGPPGGPGMPPGGRGRGRGQGNWGPPGGEMTFSIPTHKCGLVIGRGGENVKAINQQTGAFVEISRQLPPNGDPNFKLFIIRGSPQQIDHAKQLIEEKIEGPLCPVGPGPGGPGPAGPMGPFNPGPFNQGPPGAPPHAGGPPPHQYPPQGWGNTYPQWQPPAPHDPSKAAAAAADPNAAWAAYYSHYYQQPPGPVPGPAPAPAAPPAQGEPPQPPPTGQSDYTKAWEEYYKKIGQQPQQPGAPPQQDYTKAWEEYYKKQAQVATGGGPGAPPGSQPDYSAAWAEYYRQQAAYYGQTPGPGGPQPPPTQQGQQQAQ
For the molecule B1, in assay [1], the binding result was “no binding”.
